Experimental data from the supplement of paper PMC12217912.
Some of the results follow. Sequences were assembled here from the parent chain. Inactive controls read about 0.05.

B1: TEV protease; numbered along this chain (parent)
chain: MGESLFKGPRDYNPISSSICHLTNESDGHTTSLYGIGFGPFIITNKHLFRRNNGTLVVQSLHGVFKVKDTTTLQQHLVDGRDMIIIRMPKDFPPFPQKLKFREPQREERICLVTTNFQTKSMSSMVSDTSCTFPSGDGIFWKHWIQTKDGQCGSPLVSTRDGFIVGIHSASNFTNTNNYFTSVPKNFMELLTNQEAQQWVSGWRLNADSVLWGGHKVFMVKPEEPFQPVKEATQL

Variants of: B1
Assay: raw area under fraction-flipped curve 0-4 h after induction (AUC4h, not background-subtracted), DNA-recorder readout of cleavage of the substrate (dimensionless); higher = more cleavage of the substrate by the protease variant
Conditions: temperature: 34 °C; time window: 0-4 h after rhamnose induction
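Note: Bxb1 expression induced with 0.2% (w/v) L-rhamnose at OD600 near 0.5, cultures sampled hourly, flipped fraction per protease–substrate barcode pair counted by paired-end Illumina sequencing.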

| Variant | area with substrate ENLYFCS | area with substrate ENLYFDS | area with substrate ENLYFFS | area with substrate ENLYFGS | area with substrate ENLYFIS | area with substrate ENLYFKS | area with substrate ENLYFMS | area with substrate ENLYFNS | area with substrate ENLYFPS | area with substrate ENLYFRS | area with substrate ENLYFSS | area with substrate ENLYFTS | area with substrate ENLYFVS | area with substrate ENLYFWS | area with substrate ENLYFYS | area with substrate ENLYFES | area with substrate ENLYFLS | area with substrate ENLYFHS |
| --- | --- | --- | --- | --- | --- | --- | --- | --- | --- | --- | --- | --- | --- | --- | --- | --- | --- | --- |
| K90S | 0.0743 | 0.0611 | 0.0667 | 0.0674 | 0.0558 | 0.0631 | 0.0753 | 0.074 | 0.0674 | 0.0606 | 0.0446 | 0.058 | 0.0553 | 0.0602 | 0.0466 | – | – | – |
| S123R | 0.0544 | 0.0633 | 0.0658 | 0.072 | 0.0545 | 0.0641 | 0.0683 | 0.067 | 0.0618 | 0.0684 | 0.0604 | 0.0547 | – | – | 0.0598 | 0.0657 | 0.0466 | – |
| V113F | 0.0673 | – | 0.0589 | – | – | – | 0.0837 | 0.0612 | – | – | – | 0.054 | – | 0.0452 | 0.0727 | – | – | – |
| V113I | 0.0591 | – | – | – | – | – | 0.0675 | – | 0.0524 | 0.0538 | – | 0.0676 | 0.0556 | – | – | 0.0625 | 0.06 | 0.0549 |
| T119Y | 0.0554 | 0.0589 | 0.0706 | 0.0624 | 0.0586 | 0.064 | 0.0548 | 0.0509 | – | 0.0764 | – | 0.0634 | 0.0564 | – | – | 0.0528 | 0.0822 | 0.0717 |
| M125C | 0.0538 | – | – | – | 0.0598 | – | – | – | 0.0585 | – | – | 0.0623 | – | – | 0.0676 | 0.0536 | – | 0.0519 |
| M125G | 0.0739 | 0.0803 | 0.0623 | – | 0.0624 | 0.0666 | 0.0634 | – | 0.0586 | 0.0579 | 0.0525 | 0.0316 | – | 0.0617 | 0.0588 | 0.0627 | – | – |
| T147H | 0.08 | 0.0485 | – | 0.0492 | 0.0687 | – | 0.055 | 0.0599 | 0.0677 | 0.0611 | 0.0657 | 0.0632 | 0.057 | – | – | 0.0452 | – | – |
| C111P | 0.0422 | 0.081 | 0.0641 | – | 0.0511 | 0.0881 | 0.0548 | 0.0629 | 0.0469 | 0.059 | – | – | 0.0495 | 0.0617 | – | – | – | – |
| F101C | 0.0573 | – | 0.0642 | 0.0541 | 0.057 | 0.056 | 0.0624 | – | 0.0557 | 0.0486 | 0.0604 | 0.0576 | 0.0587 | 0.0866 | 0.042 | 0.0535 | 0.0641 | 0.0477 |
| F140N | 0.0706 | – | 0.0699 | 0.0627 | 0.0519 | 0.0609 | 0.0655 | 0.0795 | 0.0618 | – | 0.0512 | 0.0591 | 0.0722 | 0.0572 | 0.0542 | 0.0623 | – | 0.0533 |
| D137I | 0.0506 | 0.0608 | 0.0561 | – | 0.0585 | 0.0544 | 0.0582 | 0.0573 | 0.0758 | – | 0.0655 | 0.0784 | – | 0.0598 | 0.0599 | 0.0514 | – | 0.0544 |
| S130K | 0.0499 | – | 0.0591 | 0.0556 | 0.0503 | 0.0628 | 0.0564 | 0.0715 | 0.0561 | 0.0534 | 0.0622 | – | 0.0619 | 0.0503 | 0.0536 | 0.0623 | – | 0.052 |
| T115A | 0.0619 | – | 0.0775 | 0.0599 | 0.0563 | 0.0697 | 0.0672 | 0.0424 | – | 0.064 | – | – | 0.0555 | – | 0.0515 | – | 0.0692 | 0.0531 |
| F133A | 0.056 | – | 0.0617 | – | 0.0635 | – | 0.0684 | – | – | – | 0.0849 | – | – | 0.0598 | 0.0663 | 0.0824 | – | – |
| F133H | 0.0596 | – | – | – | 0.0494 | – | 0.0683 | 0.0652 | 0.0408 | – | – | – | 0.0504 | – | 0.0625 | 0.0679 | 0.0518 | 0.0559 |
| F133I | 0.0586 | – | 0.0726 | – | 0.0569 | – | – | – | 0.0668 | – | 0.0716 | – | 0.0421 | 0.0774 | – | 0.0578 | – | – |
| E107P | 0.0734 | – | – | – | – | – | 0.0229 | 0.0522 | 0.054 | 0.0461 | – | – | – | 0.0522 | – | 0.078 | – | – |
| P134N | 0.061 | 0.0864 | 0.0587 | – | 0.0497 | 0.0455 | 0.0555 | 0.0449 | 0.0547 | – | 0.0521 | 0.0709 | 0.0622 | 0.04 | – | 0.0589 | 0.0636 | 0.0579 |
| Q146A | 0.056 | – | – | – | – | 0.0811 | 0.0968 | 0.068 | 0.064 | 0.0695 | 0.0265 | – | – | – | – | – | 0.0442 | – |
| Q146F | 0.0653 | – | 0.0777 | 0.0703 | 0.0597 | 0.0738 | – | – | 0.0533 | – | 0.0573 | 0.0585 | – | 0.0507 | 0.0447 | – | – | 0.0924 |
| D91K | 0.0655 | 0.0591 | – | – | 0.0625 | – | 0.085 | 0.0727 | – | 0.0587 | – | – | – | – | 0.0577 | 0.0646 | – | 0.0623 |
| R106V | 0.0429 | 0.0826 | 0.0589 | 0.0604 | 0.0425 | 0.0499 | 0.0703 | – | 0.0613 | 0.0619 | 0.0592 | 0.0703 | 0.065 | 0.0758 | 0.0539 | – | 0.0586 | 0.0607 |
| Q118R | 0.0597 | 0.0843 | 0.0646 | 0.0518 | 0.0665 | – | 0.0652 | – | 0.0567 | 0.0741 | – | 0.0548 | – | – | – | 0.0541 | 0.0592 | 0.0472 |
| S124L | 0.0581 | – | 0.0746 | – | 0.0613 | – | 0.0591 | – | – | 0.0582 | 0.0671 | – | – | – | – | 0.0621 | – | – |
| F92D | 0.028 | – | 0.0434 | 0.0359 | 0.0575 | 0.0494 | 0.039 | 0.0519 | 0.0584 | 0.0726 | 0.054 | 0.0481 | – | 0.0482 | – | – | – | – |
| S154K | 0.0594 | 0.0504 | 0.067 | 0.0504 | 0.0544 | – | 0.0322 | 0.0687 | – | 0.0595 | 0.0539 | 0.0569 | 0.0533 | – | – | 0.0518 | 0.058 | – |
| F117S | 0.082 | – | – | 0.0459 | 0.0615 | 0.0711 | 0.0911 | 0.0636 | 0.0651 | – | – | – | – | 0.0415 | – | 0.0601 | 0.0454 | – |
| P93T | 0.0544 | 0.0792 | 0.0734 | – | 0.0581 | – | 0.0615 | 0.0549 | 0.0614 | – | – | – | – | 0.0637 | – | – | – | – |
| P93V | 0.0754 | 0.0484 | 0.0654 | – | 0.0539 | – | 0.0379 | – | – | – | – | 0.0478 | 0.0636 | – | – | 0.0616 | – | 0.0331 |
